# Assay results taken from the supplement of paper PMC8728848.
# The list shows a part of the results.
# B1: SGC, Q9M345 (protein)
# chain: QNLNFTYNGFHPPLTDISLQGLATVTPNGLLKLTNTSVQKTGHAFCTERIRFKDSQNGNVSSFSTTFVFAIHSQIPTLSGHGIAFVVAPTLGLPFALPSQYIGLFNISNNGNDTNHIFAVEFDTIQSSEFGDPNDNHVGIDLNGLRSANYSTAGYRDDHDKFQNLSLISRKRIQVWIDYDNRSHRIDVTVAPFDSDKPRKPLVSYVRDLSSILLEDMYVGFSSATGSVLSEHFLVGWSFRLNGEAPMLSLSKLPKLPRFEPRRIS
# Experiments:
# Experiment in all cases: glycan array binding signal (z-score within array); higher = stronger binding
# Conditions in all cases: glycan notation: IUPAC condensed, linker removed
# [1] = molecular target: Fuc(a1-2)[Gal(a1-3)]Gal(b1-3)GlcNAc
# In short: (§1)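 Columns mapping to the same glycan were averaged after glycan names were converted to IUPAC-condensed notation. The data come from 3228 arrays in the Consortium for Functional Glycomics database, limited to those with an available protein sequence. Binding is reported as a within-array Z-score averaged across arrays of one protein sequence and across linkers.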
# [2] = molecular target: Fuc(a1-2)[Gal(a1-3)]Gal(b1-3)GlcNAc(b1-2)Man(a1-3)[Fuc(a1-2)[Gal(a1-3)]Gal(b1-3)GlcNAc(b1-2)Man(a1-6)]Man(b1-4)GlcNAc(b1-4)GlcNAc
# In short: as §1
# [3] = molecular target: Fuc(a1-2)[Gal(a1-3)]Gal(b1-3)GlcNAc(b1-2)Man(a1-3)[Fuc(a1-2)[Gal(a1-3)]Gal(b1-3)GlcNAc(b1-2)Man(a1-6)]Man(b1-4)GlcNAc(b1-4)[Fuc(a1-6)]GlcNAc
# In short: as §1
# [4] = molecular target: Fuc(a1-2)[Gal(a1-3)]Gal(b1-3)GlcNAc(b1-3)GalNAc
# In short: as §1
# [5] = molecular target: Fuc(a1-2)[Gal(a1-3)]Gal(b1-3)GlcNAc(b1-6)GalNAc
# In short: as §1
# [6] = molecular target: Fuc(a1-2)[Gal(a1-3)]Gal(b1-4)Glc
# In short: as §1
# [7] = molecular target: Fuc(a1-2)[Gal(a1-3)]Gal(b1-4)GlcNAc
# In short: as §1
# [8] = molecular target: Fuc(a1-2)[Gal(a1-3)]Gal(b1-4)GlcNAc(b1-2)Man
# In short: as §1
# [9] = molecular target: Fuc(a1-2)[Gal(a1-3)]Gal(b1-4)GlcNAc(b1-2)Man(a1-3)[Fuc(a1-2)[Gal(a1-3)]Gal(b1-4)GlcNAc(b1-2)Man(a1-6)]Man(b1-4)GlcNAc(b1-4)GlcNAc
# In short: as §1
# [10] = molecular target: Fuc(a1-2)[Gal(a1-3)]Gal(b1-4)GlcNAc(b1-2)Man(a1-3)[Fuc(a1-2)[Gal(a1-3)]Gal(b1-4)GlcNAc(b1-2)Man(a1-6)]Man(b1-4)GlcNAc(b1-4)[Fuc(a1-6)]GlcNAc
# In short: as §1
# [11] = molecular target: Fuc(a1-2)[Gal(a1-3)]Gal(b1-4)GlcNAc(b1-3)GalNAc
# In short: as §1
# [12] = molecular target: Fuc(a1-2)[Gal(a1-3)]Gal(b1-4)GlcNAc(b1-3)[Fuc(a1-2)[Gal(a1-3)]Gal(b1-4)GlcNAc(b1-6)]GalNAc
# In short: as §1
# [13] = molecular target: Fuc(a1-2)[Gal(a1-3)]Gal(b1-4)GlcNAc(b1-6)GalNAc
# In short: as §1
# [14] = molecular target: Fuc(a1-2)[Gal(a1-3)]Gal(b1-4)[Fuc(a1-3)]Glc
# In short: as §1
# [15] = molecular target: Fuc(a1-2)[Gal(a1-3)]Gal(b1-4)[Fuc(a1-3)]GlcNAc
# In short: as §1
# [16] = molecular target: Fuc(a1-2)[Gal(a1-3)]Gal(b1-4)[Fuc(a1-3)]GlcNAc(b1-3)GalNAc
# In short: as §1
# [17] = molecular target: Fuc(a1-2)[Gal(a1-4)]Gal(b1-4)GlcNAc
# In short: as §1
# [18] = molecular target: Fuc(a1-2)[GalNAc(a1-3)]Gal
# In short: as §1
# [19] = molecular target: Fuc(a1-2)[GalNAc(a1-3)]Gal(b1-3)GalNAc(a1-3)[Fuc(a1-2)]Gal(b1-4)GlcNAc
# In short: as §1
# [20] = molecular target: Fuc(a1-2)[GalNAc(a1-3)]Gal(b1-3)GalNAc(b1-3)Gal(a1-4)Gal(b1-4)Glc
# In short: as §1
# [21] = molecular target: Fuc(a1-2)[GalNAc(a1-3)]Gal(b1-3)GlcNAc
# In short: as §1
# [22] = molecular target: Fuc(a1-2)[GalNAc(a1-3)]Gal(b1-3)GlcNAc(b1-2)Man(a1-3)[Fuc(a1-2)[GalNAc(a1-3)]Gal(b1-3)GlcNAc(b1-2)Man(a1-6)]Man(b1-4)GlcNAc(b1-4)GlcNAc
# In short: as §1
# [23] = molecular target: Fuc(a1-2)[GalNAc(a1-3)]Gal(b1-3)GlcNAc(b1-2)Man(a1-3)[Fuc(a1-2)[GalNAc(a1-3)]Gal(b1-3)GlcNAc(b1-2)Man(a1-6)]Man(b1-4)GlcNAc(b1-4)[Fuc(a1-6)]GlcNAc
# In short: as §1
binder,measurement,setting,value
B1,glycan array binding signal (z-score),[1],-0.354
same,glycan array binding signal (z-score),[2],0.013
same,glycan array binding signal (z-score),[3],-0.4
same,glycan array binding signal (z-score),[4],-0.365
same,glycan array binding signal (z-score),[5],-0.396
same,glycan array binding signal (z-score),[6],-0.355
same,glycan array binding signal (z-score),[7],-0.374
same,glycan array binding signal (z-score),[8],-0.352
same,glycan array binding signal (z-score),[9],2.63
same,glycan array binding signal (z-score),[10],-0.387
same,glycan array binding signal (z-score),[11],-0.346
same,glycan array binding signal (z-score),[12],0.139
same,glycan array binding signal (z-score),[13],-0.347
same,glycan array binding signal (z-score),[14],-0.356
same,glycan array binding signal (z-score),[15],0.369
same,glycan array binding signal (z-score),[16],-0.317
same,glycan array binding signal (z-score),[17],-0.382
same,glycan array binding signal (z-score),[18],-0.389
same,glycan array binding signal (z-score),[19],-0.37
same,glycan array binding signal (z-score),[20],-0.372
same,glycan array binding signal (z-score),[21],-0.295
same,glycan array binding signal (z-score),[22],0.925
same,glycan array binding signal (z-score),[23],-0.095
